From PubChem BioAssay AID2147 (National Center for Advancing Translational Sciences (NCATS), 2009)
In all, about 230,000 compounds went through this assay and about 3,600 (1.6%) were called active. Inconclusive results, whose numbers are uncertain, are shown with a selection of clear calls. The call rests on the fitted dose curve; in most records, active means well fitted inhibition curve with a large enough effect (not every such curve was filed as active); inconclusive means small, poorly fitted or top-dose-only effect, or another doubt; inactive means no such curve, though single readings can be large or run the other way. Potencies beside an inconclusive call are fits to weak or partial responses and may not hold up.

target: Lysine-specific demethylase 4E (Homo sapiens) (UniProt B2RXH2); assay: qHTS Assay for Inhibitors of Human Jumonji Domain Containing 2E (JMJD2E); details: JMJD2E catalytic domain, FDH-coupled NADH fluorescence (FDH is formaldehyde dehydrogenase); series mostly up to 57.1 µM; activity change, negative = inhibition: at the top concentration
Further: nearly all actives have a fitted effect of over 50% in size.
Potency means the concentration at half of the fitted maximal effect; tags describe the fitted curve by direction and shape.
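Wherever activity change, negative = inhibition is given: 0% = wells with enzyme and -100% = buffer wells without enzyme.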

Sequence of UniProt B2RXH2 (B2RXH2 whole entry, looked up, the tested form may be a part): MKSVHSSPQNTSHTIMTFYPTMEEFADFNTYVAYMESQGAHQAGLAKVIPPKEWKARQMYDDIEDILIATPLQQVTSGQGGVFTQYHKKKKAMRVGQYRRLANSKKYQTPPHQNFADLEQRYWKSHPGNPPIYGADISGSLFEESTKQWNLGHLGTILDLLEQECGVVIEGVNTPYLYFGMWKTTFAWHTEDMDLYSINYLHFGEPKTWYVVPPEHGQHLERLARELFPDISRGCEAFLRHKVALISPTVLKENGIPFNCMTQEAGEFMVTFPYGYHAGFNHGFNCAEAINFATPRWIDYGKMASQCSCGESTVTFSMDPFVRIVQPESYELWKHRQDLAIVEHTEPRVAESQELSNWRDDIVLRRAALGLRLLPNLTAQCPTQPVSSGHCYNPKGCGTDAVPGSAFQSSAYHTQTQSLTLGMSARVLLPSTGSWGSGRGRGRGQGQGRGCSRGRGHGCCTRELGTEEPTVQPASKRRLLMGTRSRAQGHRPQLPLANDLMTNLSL

Compound | Potency | activity change, negative = inhibition
Cc1ccc(Nc2nc(-c3c(C)nc4ncccn34)cs2)cc1 | inconclusive: 28.2 µM [inhibitor, partial curve] | 
COCCNC(=O)c1c[nH]c2ccc(S(=O)(=O)N3CCc4ccccc43)cc2c1=O |  | inactive: 7.49%
O=C(Nc1cccc(-c2csc(-c3ccccc3)n2)c1)c1cccs1 | inconclusive: 39.8 µM [inhibitor, single point] | 
Cc1ccn2cc(CCNC(=O)Cc3cccs3)nc2c1 | inconclusive: 31.6 µM [inhibitor, partial curve] | 
COCCn1c(Br)nc2c1c(=O)n(C)c(=O)n2C |  | inactive: 5.55%
O=C(CCS(=O)(=O)c1ccccc1)Nc1cccc2c1C(=O)NC2=O | inconclusive: 17.8 µM [inhibitor, partial curve] | 
Cc1ccc(C(=O)NCC(=O)N/N=C/c2cccs2)cc1C | inconclusive: 25.1 µM [inhibitor, single point] | 
CNCCCOc1ccc(C(C)(C)c2ccccc2)cc1 | inconclusive: 39.8 µM [inhibitor, single point] | 
N#Cc1c(-c2cccs2)nc(SCC(=O)c2ccc(Br)cc2)[nH]c1=O | inconclusive: 39.8 µM [inhibitor, single point] | 
CCCC1=C(C(=O)OCC)C(c2ccco2)C(C#N)=C(N)O1 (stereo not drawn) | inconclusive: 39.8 µM [inhibitor, single point] | 
COc1cccc(C2CC(c3cccs3)=NN2C(=O)CSc2nc3ccccc3o2)c1OC (stereo not drawn) | inconclusive: 35.5 µM [inhibitor, partial curve] | 
CC(=O)N1CCn2c3c(c(=O)c4cc(C)ccc42)CCC31 (stereo not drawn) | inconclusive: 25.1 µM [inhibitor, partial curve] | 
Cc1cccc(-n2c(SCC(=O)N3CC(=O)Nc4ccccc43)nc3ccccc3c2=O)c1C | inconclusive: 39.8 µM [inhibitor, single point] | 
CCOC(=O)c1cc2oc(C(c3nnnn3C3CCCCC3)N3CCOCC3)cc2[nH]1 (stereo not drawn) |  | inactive: 0.133%
CCN1CCN(c2oc(-c3ccco3)nc2C#N)CC1 | inconclusive: 28.2 µM [inhibitor, partial curve] | 
O=C(O)c1ccc(CSc2n[nH]c(-c3ccco3)n2)cc1 |  | inactive: -10%
Cc1cc(N/N=C/c2ccccc2F)c2ccccc2n1 | inconclusive: 20 µM [inhibitor, partial curve] | 
C=C(C(C)=O)C(O)c1ccco1 (stereo not drawn) | inconclusive: 20 µM [inhibitor, partial curve] | 
C(=N\C(/N=C/c1ccco1)c1ccco1)/c1ccco1 | inconclusive: 22.4 µM [inhibitor, partial curve] | 
O=C(c1ccc(F)cc1)N1CCN(C2CC3CCC2C3)CC1 (stereo not drawn) |  | inactive: -2.79%
COc1ccc(C(=O)NCc2nnc(SCC(=O)N3CCc4ccccc43)n2Cc2ccccc2)cc1 |  | inactive: -0.609%
Cc1nc(-c2ccc(NC(=O)c3ccccc3C)cc2)cs1 | inconclusive: 39.8 µM [inhibitor, single point] | 
COc1ccc(OC)c(NC(=O)c2cc(-c3cc(Cl)ccc3O)n[nH]2)c1 | inconclusive: 28.2 µM [inhibitor, single point] | 
COc1ccc(-c2cc(C(F)(F)F)n3nc(C(=O)N4CCOCC4)nc3n2)cc1 | inconclusive: 31.6 µM [inhibitor, partial curve] | 

Compound | Potency | activity change, negative = inhibition
COc1ccc(-c2nnc(-c3cccnc3)o2)cc1OC | inconclusive: 28.2 µM [inhibitor, single point] | 
Cc1ccc(-n2nc(C)c3c2OC(N)=C(C#N)C3c2cccs2)cc1 (stereo not drawn) |  | inactive: -2.44%
O=C(Nc1ccccc1)C1CCCCC1 |  | inactive: 6.37%
CCCc1cc(-c2nc(-c3ccc(Cl)cc3)cs2)ccn1 | inconclusive: 35.5 µM [inhibitor, single point] | 
CC(=O)c1ccc(NC(=O)C2CC(=O)N(C(C)C)C2)cc1 (stereo not drawn) |  | inactive: 10.6%
CCOC(=O)c1nc(C)sc1-c1ccnn1S(=O)(=O)c1ccc(C)cc1 |  | inactive: -1.76%
O=C(CSc1cccs1)Nc1cccc2ccccc12 |  | inactive: 7.85%
O=C(CCCOc1ccc(Cl)cc1)N1CCOCC1 |  | inactive: 14.7%
COCCNC(=O)C(c1ccc(C)o1)N(C(=O)c1snc(C(N)=O)c1N)c1cc(C)cc(C)c1 (stereo not drawn) | inconclusive: 28.2 µM [inhibitor, single point] | 
NS(=O)(=O)c1ccc(-c2ccc(/C=C3\C(=O)Nc4cc(Cl)ccc43)o2)cc1 |  | inactive: 2.35%
CCC(C)[C@@H](N)C(=O)N/N=C/c1cccc2nccnc12 (stereo partly drawn) | inconclusive: 39.8 µM [inhibitor, single point] | 
Cc1[nH]c2ccccc2c1C(c1ccccn1)N1CCC(C(N)=O)CC1 (stereo not drawn) | inconclusive: 28.2 µM [inhibitor, single point] | 
Cc1ccc(C)c(NC(=S)NCCN(C2CCCCC2)C2CCCC2)c1 |  | inactive: 0.0083%
COc1ccc(C(=O)N/N=C/c2cccc3cccnc23)cc1 | inconclusive: 35.5 µM [inhibitor, single point] | 
Cc1ccc(C)c(NC(=O)CSc2nnc3n2CCCCC3)c1 | inconclusive: 39.8 µM [inhibitor, single point] | 
Cc1ccc(C2=NN3C(C2)c2ccccc2OC32C(=O)Nc3ccccc32)cc1 (stereo not drawn) | inconclusive: 22.4 µM [inhibitor, single point] | 
COc1ccc(Nc2cc(C)nc3nc(C)nn23)cc1Cl |  | inactive: 5.47%
O=C1CCC2c3ccc4ccccc4c3CCN12 (stereo not drawn) | inconclusive: 28.2 µM [inhibitor, partial curve] | 
Cc1cccc(OCC(=O)Nc2ccc(N3CCN(C(=O)c4ccccc4)CC3)cc2)c1 |  | inactive: -11.9%
CCCCc1ccc(/C=C2/C(=O)ON=C2c2ccccc2)s1 |  | inactive: 4.56%
N=c1c(C(=O)NCc2ccccc2)cc2c(=O)n3ccccc3nc2n1CCCN1CCOCC1 | inconclusive: 12.6 µM [inhibitor, partial curve] | 
CCOC(=O)c1ccc(NC(=O)c2nc[nH]c2C(=O)NC)cc1 | inconclusive: 35.5 µM [inhibitor, single point] | 
COCCn1cnnc1SCC(=O)Nc1ccc(Br)cc1F |  | inactive: 11.1%
COc1ccc2c(c1)C1=NN(/C(C)=C\C(C)=O)C(c3ccccc3)C1CC2 (stereo not drawn) | inconclusive: 31.6 µM [inhibitor, single point] | 
